# Laboratory results as given in the supplement of paper PMC10441789.
# The other results are listed elsewhere or left out. Antibody binding of pooled human sera (four to six donors per pool; dilution not stated) to peptides of the Trypanosoma cruzi antigen TSSA on microarrays. Quantile-normalised fluorescence in arbitrary units, mean of duplicate arrays; higher = more binding. No active / inactive call. The uninfected pools are read here as the healthy donors of the same country. The strongest signals lie near the top of the scale (about 60,000).
# Key:
# Experiment in all cases: antibody binding signal (normalised fluorescence) (arbitrary fluorescence units); higher = stronger serum antibody binding to peptide
# [1] = system: pooled sera of chronic Chagas disease patients, Bolivia
# Protocol: (§1)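 Microarray of 15-residue peptides over residues 30-55 of Trypanosoma cruzi TSSAII, each with 1 to 10 substitutions at naturally variable positions, probed with one serum pool per country.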
# [2] = system: pooled sera of chronic Chagas disease patients, Brazil
# Protocol: as §1
# [3] = system: pooled sera of chronic Chagas disease patients, Colombia
# Protocol: as §1
# [4] = system: pooled sera of chronic Chagas disease patients, Mexico
# Protocol: as §1
# [5] = system: pooled sera of chronic Chagas disease patients, USA
# Protocol: as §1
# [6] = system: pooled sera of uninfected people, Argentina
# Protocol: as §1
# [7] = system: pooled sera of uninfected people, Bolivia
# Protocol: as §1
# [8] = system: pooled sera of uninfected people, Brazil
# Protocol: as §1
# [9] = system: pooled sera of uninfected people, Colombia
# Protocol: as §1
# [10] = system: pooled sera of uninfected people, Mexico
# Protocol: as §1
# [11] = system: pooled sera of uninfected people, USA
# Protocol: as §1
Sequence,antibody binding signal [1],antibody binding signal [2],antibody binding signal [3],antibody binding signal [4],antibody binding signal [5],antibody binding signal [6],antibody binding signal [7],antibody binding signal [8],antibody binding signal [9],antibody binding signal [10],antibody binding signal [11]
PPSGKDKKTAAGGTP,350,464,4510,19900,2180,107,459,313,192,113,131
GTDKKPAAGGAPSQS,430,870,7000,610,1330,164,224,200,141,356,159
KDNKTAAGGAPSQPG,207,1040,3680,278,343,281,130,162,191,89,148
ENKPATGGTPSQSGA,3800,3670,398,926,665,470,906,759,246,340,300
GTEKKPAAGEAPSQS,6200,15400,1460,2610,15500,145,1110,2250,98.8,428,1020
SGTDKKTATGETPSQ,1060,4970,1280,239,7410,217,240,199,163,256,126
GTDKKTATGEAPSQS,25400,20200,1590,465,21400,216,195,193,92.7,210,111
GTDNKAAAGGAPSQS,228,29900,2560,439,263,180,727,1590,211,227,203
PSGKEKKPATGGTPS,4020,6920,11800,10800,7110,447,578,219,168,121,214
GTENKTATGEAPSPS,35500,17200,605,751,21800,148,228,209,234,137,102
ISTPPSGKDKKPAAG,4170,10900,414,42600,1050,267,344,173,177,136,205
TDKKTATGETPSPPG,577,1070,404,322,6500,192,171,288,126,201,1170
TEKKPAAGGAPSPPG,289,438,5520,664,1860,260,225,779,149,346,1110
EKKAATGGTPSPSGA,593,494,2390,833,1340,342,740,833,1090,150,593
KDNKTATGGAPSQSG,212,280,1640,284,351,382,116,123,177,126,135
SGTDNKTAAGETPSQ,530,41100,364,231,249,119,652,993,202,162,236
KDKKAATGETPSPPG,258,6580,120,277,6030,325,93,96.6,216,72.5,558
SGTDNKAAAGEAPSP,809,43500,395,158,11600,105,681,1260,121,109,170
TEKKAAAGETPSQPG,2430,30600,485,388,3760,118,389,220,845,246,234
PSGTEKKPATGGAPS,3180,15700,5790,6700,7450,790,1220,331,395,298,662
GTDKKTAAGETPSQP,1340,25100,1270,442,1520,121,352,154,1110,179,108
KDNKTATGEAPSPSG,13500,14600,2220,220,22200,511,220,189,303,87.1,192
GKEKKTAAGETPSPS,259,418,2720,2510,3440,125,108,94.9,216,84.9,543
DNKTATGEAPSQSGA,32000,21600,237,520,21900,206,113,255,135,131,135
GKENKTATGGTPSQS,397,10000,5910,5660,14400,434,116,123,100,197,141
PPSGKEKKAAAGEAP,607,2450,2000,5690,6300,407,496,112,234,92,157
PPSGTDNKAAAGEAP,33300,45500,1060,609,12400,598,714,1210,207,207,268

Sequence,antibody binding signal [1],antibody binding signal [2],antibody binding signal [3],antibody binding signal [4],antibody binding signal [5],antibody binding signal [6],antibody binding signal [7],antibody binding signal [8],antibody binding signal [9],antibody binding signal [10],antibody binding signal [11]
SGKENKPATGGAPSP,2200,16900,3620,4920,17600,8200,4040,148,228,376,254
TENKPATGEAPSPPG,48100,49900,304,610,40400,960,594,322,103,175,162
PSGKENKTAAGGAPS,1500,10900,15900,12700,9360,5840,1800,788,503,323,192
SGTDNKPAAGGTPSP,1420,45200,3970,350,398,163,983,1060,662,440,236
TPPSGTENKPATGGT,49700,54200,248,4720,34200,9190,1700,1230,754,1080,1130
KDKKAATGGTPSQPG,490,214,502,499,439,293,77.2,237,240,178,91.9
DKKTAAGGAPSQPGA,856,628,5620,489,651,214,114,152,285,228,168
KEKKTATGEAPSPSG,6780,5140,237,251,13800,163,98,110,85.9,92.5,126
PPSGTEKKAATGGAP,898,13800,882,3170,3600,1520,894,146,784,135,341
PSGKENKTATGGTPS,1470,9500,9730,8740,6890,5590,1580,144,469,269,194
SGKDKKPATGGTPSQ,732,635,956,717,1510,203,109,259,394,104,98.2
SGKEKKAATGETPSP,445,5500,1450,3900,11700,463,202,97.3,286,105,454
TDKKTAAGEAPSPPG,346,879,419,328,8270,160,101,325,1330,145,93.5
PSGKENKTATGETPS,4680,9290,3370,4900,9020,5870,3280,283,746,604,229
DKKAAAGETPSPPGA,213,1730,265,281,1600,145,196,169,117,172,292
STPPSGKEKKTAAGE,1690,827,867,16800,1530,473,712,106,347,189,204
GKDNKAATGEAPSQS,32100,34300,4130,4210,26500,304,301,116,269,103,105
PSGTENKAAAGGAPS,23800,44900,7300,6890,11200,1280,757,503,507,662,406
SSTPPSGTENKPAAG,54100,54300,419,11300,47300,9010,1670,862,984,894,1120
TDNKPAAGETPSPSG,303,14600,414,242,4040,114,461,235,190,455,1940
GTEKKAATGGTPSQS,944,409,1210,1390,1310,346,416,784,875,288,159
TPPSGTDKKTAAGGA,12300,30000,6950,44200,1910,877,157,270,232,467,329
TDKKPATGGTPSPPG,858,698,3060,829,452,162,793,1350,661,176,138
GKDNKAATGGAPSPS,231,423,1420,1840,2010,241,285,122,157,78,102
GTDNKPATGEAPSPP,48900,49200,1130,227,37900,896,761,459,146,304,116
KDNKTATGETPSQPG,887,32300,2250,247,6970,494,549,321,355,204,247
SGKDNKAATGEAPSP,29000,33500,564,591,27100,238,326,165,338,102,122
